These results are taken from ChEMBL document CHEMBL1201862, “PubChem BioAssay data set” (2004).

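Five compound concentrations were applied to cells in 96-well plates for 48 hours; endpoints were derived by simple linear interpolation of the resulting dose-response curve. At the GI50, growth is halved.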 Activity calls are given as the source filed them. No stated cut-off is given here; in the data, active = GI50 up to about 1.1 µM and inactive = higher. Where only a bound is given, the exact number is not on record here.

This experiment concerns NCI-H322M. Kind of experiment: NCI-60 cell line screen, 48 h.
`C=C(Br)CN(C)CC(=C)Br`: the GI50 is inactive: > 100 µM.
For `C/C=C/c1cc2c(cc1O)CC[C@@H]1[C@@H]2CC[C@]2(C)[C@@H](O)CC[C@@H]12`, the GI50 is active: 0.144 µM.
Under `O=c1c2ccccc2sc2nc(CCl)nn12` stands inactive: 6.58 µM.
Under `CCC(=O)CCC1=Nc2nnc(CCCCc3nnc4n3C(=O)C(CCC(=O)CC)=N4)n2C1=O` stands inactive: > 100 µM.
Under `NS(=O)(=O)c1ccc(NNc2c3ccccc3nc3c(C(=O)Nc4ccc(S(N)(=O)=O)cc4)cccc23)cc1` stands inactive: 31.5 µM.
Regarding `Cc1ccc(NC(=O)CCC(=O)C(C#N)c2ccc(Cl)cc2)cc1C` (stereo not given), the GI50 was inactive: > 100 µM.
Under `COc1ccccc1NC(=S)Nc1cc(C)cc(C)n1` stands inactive: > 100 µM.
Under `c1cc2nsnc2c2c[nH]cc12` stands inactive: > 100 µM; under `Nc1nc(Cl)cc(NCC2(O)CCCC2)n1`, inactive: > 100 µM; under `Clc1nc(NC23CC4CC(CC(C4)C2)C3)nc(NC23CC4CC(CC(C4)C2)C3)n1`, inactive: > 39.5 µM.
With `O=C1CCCC2C3CC(CN12)C1CCCCN1C3.[O-][Cl+3]([O-])([O-])O` (stereo not given), the GI50 is inactive: > 100 µM.
Under `N#CC(C#N)=C1SCC(=O)CS1` stands inactive: > 100 µM.
Under `Cc1cccc(C(C)O)n1` (stereo not given) stands inactive: > 100 µM.
Consider `O=c1[nH]cc(C(F)(C(F)(F)F)C(F)(F)F)c(=O)[nH]1`, for which the GI50 is inactive: > 100 µM.
Under `c1cncc(CSc2nc3ccccc3nc2-c2cccs2)c1` stands inactive: > 100 µM.
Under `COC(=O)c1ccc(NC(=O)O/N=C(\Cl)C(C)C)cc1` stands inactive: 16.4 µM; under `COc1cc(Nc2nc3cc(C(F)(F)F)ccc3nc2C)cc(OC)c1OC`, inactive: 4.09 µM; under `C/C(=N\NC(=S)Nc1ccc([N+](=O)[O-])cc1S(=O)(=O)O)c1ccccn1`, inactive: 28.9 µM.
Turning to `CSc1nc(C)c(CCOC(C)=O)c(N=P(c2ccccc2)(c2ccccc2)c2ccccc2)n1`, the GI50 was inactive: 9.93 µM.
Turning to `COC(=O)[C@]12CC=C3O[C@@H]4OC5(CCCCC5)O[C@@H]4C3[C@@H]1C(=O)CCC2=O` (stereo not given in full), the GI50 was inactive: > 100 µM.
Under `CC#CCCCC1(C)CCCNC1=S` (stereo not given) stands inactive: > 10 µM.
Under `O=C1C[C@@H](c2ccc(O)cc2)[C@@]2(O1)C(=O)O[C@H]([C@@H](O)CO)[C@@H]2O` stands inactive: > 100 µM; under `CC(N)Cc1cccc(C(F)(F)F)c1` (stereo not given), inactive: > 100 µM.
Under `CCOC(=O)Cn1c(=O)c2cc(-c3ccccc3)cc3c(Cl)nc4c(OC)c(OC)cc1c4c32` stands inactive: 10.8 µM; under `COC(=O)C1Cc2c([nH]c3ccccc23)C(c2ccccc2O)N1Cc1ccccc1` (stereo not given), inactive: 28.4 µM; under `O=C(O)C1CC=CCC1C(=O)Nc1cccc(O)c1` (stereo not given), inactive: > 100 µM.
On to `COC1/C=C\C=C(/C)C(=O)NC2=CC(=O)C(NCCCl)=C(CC(C)CC(OC)C(O)C(C)/C=C(/C)C1OC(N)=O)C2=O` (stereo not given), for which the GI50 is inactive: 1.54 µM.
Under `N/C(=N\O)N/N=C\c1ccccc1O` stands inactive: 20.2 µM; under `O=C(CC(=O)N1N=C(N2c3ccccc3Sc3ccccc32)CC1c1ccccc1)Nc1ccccc1Cl` (stereo not given), inactive: > 100 µM.
On to `O=c1c2ccccc2[nH]c2ccc3c(Cl)n[nH]c3c12`, for which the GI50 was inactive: 41.4 µM.
Under `C=C(C)COC(=O)COCC(=O)OCC(=C)C` stands inactive: > 100 µM.
Under `Cc1nnc2n(c1=O)CCN2C` stands inactive: > 100 µM.
Consider `COc1ccc(-c2cc(-c3cc(C)cc(Br)c3O)no2)cc1`, for which the GI50 was inactive: 9.89 µM.
Under `Nc1ccc(-c2ncc3cc(-c4cccc(-c5cc6cnc(-c7ccc(N)cc7)nc6c6ccccc56)c4)c4ccccc4c3n2)cc1` stands inactive: > 100 µM; under `CCOC(=O)C(CO)c1nc2c([nH]c1=O)c(=O)n(C)c(=O)n2C` (stereo not given), inactive: > 100 µM; under `CCOC(=O)C(NC(=O)CC(C)C)(Nc1ccc(S(=O)(=O)Nc2nc(C)cc(C)n2)cc1)C(F)(F)F` (stereo not given), inactive: > 100 µM.
Under `CSC1=C(C#N)C(=S)N=C(N)C1C(=O)Nc1ccc(C)cc1` (stereo not given) stands inactive: > 100 µM; under `C(=N/NC1=NCCN1)/c1c2ccccc2c(/C=N\NC2=NCCN2)c2ccccc12`, active: 0.104 µM; under `COc1cc(/C=C2/C(=O)N/C(=N\C(C)=O)N2C)ccc1OC(C)=O`, inactive: > 100 µM.
Under `CCOC(O)C(F)(F)F` (stereo not given) stands inactive: > 100 µM; under `O=c1/c(=C/c2cccc([N+](=O)[O-])c2)sc2nc3ccccc3n12`, inactive: 46.9 µM.
For `S=C1NNC(=S)NN1`, the GI50 was active: > 1 µM.
Under `C=C(C)CCC1CC=[N+]([O-])OC1C(C)(C)C` (stereo not given) stands inactive: 97.9 µM.
Under `CC(=O)NNC1=NN(C(C)=O)C2(S1)C(=O)Nc1ccc(C)cc12` (stereo not given) stands inactive: > 100 µM; under `O=C(Nc1ccccc1)c1cccc([N+](=O)[O-])c1`, inactive: > 100 µM; under `Cc1nc(Nc2ccc([N+](=O)[O-])cc2)sc1C(/C=C/c1ccc(N(C)C)cc1)=N/NC(=O)c1ccccc1`, inactive: 65.9 µM.
Under `C/C=C\C(CC(=O)NCCC1CN(C(=O)OCc2ccccc2)c2ccccc21)CC(=O)OC` (stereo not given) stands inactive: > 100 µM.
With `Cc1nc(C(N)=O)c(N)n1CCN1CCN(C(=O)CCCCCCCCCCNC2NC=Nc3[nH]cnc32)CC1` (stereo not given), the GI50 was inactive: 41.4 µM.
Under `CC12CCC(C(=O)O1)C(C)(C)O2` (stereo not given) stands inactive: > 100 µM; under `OCC12C=CC(C1)c1ccccc12` (stereo not given), inactive: > 100 µM.
Under `CC(C)CC/N=c1/cc2n(-c3ccc(Cl)cc3)c3ccccc3nc-2cc1Nc1ccc(Cl)cc1` stands inactive: 13.8 µM.
Under `COC(=O)CCc1ccc2c(c1)[C@H](C(=O)OC)[C@@H](c1ccc(O)cc1)O2` stands inactive: > 100 µM; under `CCOC(=O)CNC1=NNS(=O)(=O)c2ccccc21`, inactive: 61.2 µM.
Consider `CC1CC(C)(O)C2C3(C)CCCC2(COC3=O)C12CCC1(CCOC1=O)O2` (stereo not given), for which the GI50 is inactive: > 250 µM.
For `COc1ccccc1NCc1cccc2c(=O)c3ccc(Cl)cc3oc12`, the GI50 was inactive: > 100 µM.
Under `S=C1NCCN1` stands inactive: > 100 µM; under `CC(C)c1ccc2c(c1)[C@@]1(C)CC[C@H](C)C(C)(C)C1CC2` (stereo not given in full), inactive: 17.4 µM; under `COc1cc2c(cc1OC)C(C(c1ccccc1)c1ccccc1)N(C)CC2` (stereo not given), inactive: > 100 µM.
Under `C=C1N(S(=O)(=O)c2ccc(C)cc2)C(=O)OCC12CCCC2` stands inactive: > 100 µM.
Under `COc1cc2c(oc(=O)c3c4oc([Si](C)(C)C)cc4cc(OC)c23)c2cccc(OCc3ccccc3)c12` stands inactive: > 38.1 µM; under `COc1ccc(Cc2c3cc(OC)c(OC)cc3cc[n+]2C)cc1`, inactive: > 20.3 µM; under `O=C1C(Cl)C(c2cccc([N+](=O)[O-])c2)N1n1cnc2ccccc2c1=O` (stereo not given), inactive: 53.1 µM.
Regarding `CN(C)C(=S)/N=c1\ssc(=S)n1Cc1cccnc1`, the GI50 is inactive: 7.96 µM.
Under `CCCCn1c(C)c2c(c1C)C(=O)N(CC(O)CN1CCc3ccccc3C1)C2=O` (stereo not given) stands inactive: > 100 µM; under `Cc1cc2c(cc1-c1cc3c(cc1C)C(C(C)C)=C(O)C(=O)/C3=C\Nc1nc(-c3ccccc3)cs1)/C(=C/Nc1nc(-c3ccccc3)cs1)C(=O)C(O)=C2C(C)C`, inactive: 49 µM.
Under `CCC1(C(=O)OC(C)(C)C)OC12C(C)CCCC2C` (stereo not given) stands inactive: > 100 µM; under `O=C(O)CCC(c1ccccc1)(c1ccccc1)c1ccccc1`, inactive: 37 µM; under `O=Cc1c2c(cc3c1CC1(C3)Cc3cc4c(c(C=O)c3C1)CCC4)CCC2`, inactive: 55.1 µM.
Consider `CCC1C[N+]23CCc4c([nH]c5ccccc45)C2CC1CC3` (stereo not given), for which the GI50 is inactive: > 100 µM.
Under `COc1ccc(/N=C2/SC(=N/N=c3\sc4ccccc4n3C)S/C2=N/c2ccc(OC)cc2)cc1` stands inactive: > 100 µM; under `CCC1C(=O)C[C@H]2[C@@H]3C(O)CC4=CC(=O)CC[C@]4(C)[C@H]3CC[C@]12C` (stereo not given in full), inactive: > 50 µM.
With `Cc1nnc(-n2c(O)cc(=O)n(-c3ccccc3)c2=S)nc1/C=C/c1ccc(N(C)C)cc1`, the GI50 is inactive: 18 µM.
Under `COC(=O)C(C(=O)C(=O)Nc1c(C)cccc1C)c1cnc2ccccc2n1` (stereo not given) stands inactive: > 100 µM; under `Cc1cc(-c2[nH]c(C(=O)O)cc2I)on1`, inactive: 43.4 µM.
For `COc1ccc2c(c1)CCCN2S(=O)(=O)c1ccccc1[N+](=O)[O-]`, the GI50 was inactive: 70.8 µM.
With `CC1c2ccccc2Cn2cc3c(c21)C(=O)c1cccc(OP(=O)(O)OCc2ccccc2)c1C3=O` (stereo not given), the GI50 is inactive: > 100 µM.
Under `N#C[BH2-][n+]1cn(C2CC(OP(=O)(O)OCC3OC(n4ccc(N)nc4=O)CC3O)C(CO)O2)c2nc(N)[nH]c(=O)c21` (stereo not given) stands inactive: > 100 µM; under `C[C@@H]1CC2(C[C@@H](C)C3[C@@H](CC4(C)CCCC5C6=CC(O)(CC[C@]34C)OC6=CC(=O)OC5(C)C)O2)OC1=O` (stereo not given in full), inactive: > 100 µM; under `CC1OC(c2ccccc2)=CC(OCc2ccccc2)[C@H]1OCc1ccccc1` (stereo not given in full), inactive: > 10 µM.
For `COc1cc2c(cc1O)[C@H](C)C(c1ccccc1OC)O2` (stereo not given in full), the GI50 is inactive: 5.45 µM.
Under `Cc1ccc(/C=C2\CCCCCC2=O)cc1` stands inactive: > 100 µM; under `Cn1cnc([N+](=O)[O-])c1Sc1nc2ccccc2[nH]1`, inactive: 21 µM; under `NC(=O)CCC(N=C(N)c1csc(C2OC(CO)C(O)C2O)n1)C(=O)O` (stereo not given), inactive: > 100 µM.
Under `C[N+]1(CCN[N+]2(C)CCCCC2)CCc2ccccc2C1` (stereo not given) stands inactive: > 100 µM; under `CC(=O)Nc1ccc(Cl)c(Cl)c1`, inactive: > 100 µM.
